In PubChem BioAssay AID485344 (National Center for Advancing Translational Sciences (NCATS), 2010) one finds inhibition data, which are given here for 61 compounds.

“And” between values parts separate entries of the source, which are not always exact repeats. Equal entries are not always repeated. About 6,900 (2%) of roughly 340,000 compounds were called active. No stated cut-off is given here; in the data, active means inhibition above about 30%; inactive means below that, where a call was filed. This is a selection; strong and weak results do not stand in their true shares. The source gives no active or inactive call for entries shown without one.

In the experiment the target is D(2) dopamine receptor (Homo sapiens) (UniProt P14416). The experiment can be described thus: HTS Assay for Allosteric Antagonists of the Human D2 Dopamine Receptor: Primary Screen for Antagonists. Further: 0% is about no effect. The note with it: HEK293 TREx D2 cells, calcium flux, dopamine EC80; at 10 µM; stronger effect = higher value. In a few lines: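 Dopamine at EC80 is the agonist stimulus; test compounds precede it by 180 s. Calcium flux read kinetically in a force-coupled, inducible HEK293 T-REx D2 cell line.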
UniProt P14416, sequence (P14416 whole entry, looked up): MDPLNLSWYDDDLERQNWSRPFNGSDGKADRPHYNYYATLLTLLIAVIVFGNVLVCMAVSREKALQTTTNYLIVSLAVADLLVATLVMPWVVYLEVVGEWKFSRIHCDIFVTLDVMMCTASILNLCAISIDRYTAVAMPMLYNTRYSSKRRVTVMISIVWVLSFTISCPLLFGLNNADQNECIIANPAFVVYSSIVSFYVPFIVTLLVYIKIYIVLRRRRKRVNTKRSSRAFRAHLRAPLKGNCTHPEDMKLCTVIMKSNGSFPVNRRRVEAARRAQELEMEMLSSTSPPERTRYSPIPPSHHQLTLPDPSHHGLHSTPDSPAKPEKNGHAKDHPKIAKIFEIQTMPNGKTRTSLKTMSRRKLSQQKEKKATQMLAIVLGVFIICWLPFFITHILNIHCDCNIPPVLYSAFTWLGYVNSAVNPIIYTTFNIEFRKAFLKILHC
Background: Calcium assays in cells follow changes in intracellular calcium, usually with a dye or a luminescent sensor.
As a reminder, the inhibition is the change of the read-out against control, counted positive when it falls. As for `Cc1cc(Cl)ccc1Nc1ncnc2onc(C)c12`, the inhibition was -6.84%.

`Cc1ccc(Cl)cc1N1CCN(C(=O)c2cc(S(=O)(=O)N3CCCCCC3)cn2C)CC1`: the inhibition is -18.9%.

On to `Fc1ccccc1OCc1nc(-c2ccc(-n3cccc3)cc2)no1`, for which the inhibition was -0.293%.

Turning to `COc1cccc(NC(=O)CSCn2nnc3c(=O)[nH]c(Cc4ccc(F)cc4)nc32)c1`, the inhibition is 17.2%.

For the compound `O=C(Nc1ccccc1Cl)C1CCN(c2nc3ccccc3[nH]2)CC1`, the inhibition was 0.297%.

`CN(Cc1ccc(F)cc1)S(=O)(=O)c1nnc(NC(=O)c2ccc(F)cc2)s1`: the inhibition was determined as 7.31%.

Regarding `COc1ccc(NC(=O)CSc2c3c(nc4ccccc24)CCC3)c(OC)c1`, the inhibition was -15.4%.

Consider `CC(=O)c1cccc(CN2CCN(CCc3ccccc3)C(CCO)C2)c1` (stereo unspecified), for which the inhibition is active: 34.3%.

In the case of `COc1ccc(N2CCN(C(=O)CN(C)S(=O)(=O)c3cccs3)CC2)cc1`, the inhibition is 7.82%.

For `COc1ccc(Cn2ccnc2SCC(=O)Nc2cc(C(F)(F)F)ccc2Cl)cc1`, the inhibition came out at 6.45%.

Consider `COc1cccc(Nc2sc(C(=O)c3ccc(F)cc3)c(N)c2C(=O)NCc2ccc(C)cc2)c1`, for which the inhibition came out at 21.1%.

In the case of `CC(NC(=O)c1cccc(S(=O)(=O)N2CCN(Cc3ccccc3)CC2)c1)c1ccc(Cl)cc1` (stereo unspecified), the inhibition is active: 35.8%.

`COc1ccc(-c2cn3nc(N4CCCC(C(=O)NCc5ccccc5C)C4)sc3n2)cc1` (stereo unspecified): the inhibition turned out to be 1.59%.

For the compound `CCOC(=O)c1ccccc1NC(=O)c1sc2ccccc2c1Cl`, the inhibition is -9.75%.

For the compound `CCN(CC)C(=O)Cn1c(=O)cc(C)c2c(C)nn(C)c21`, the inhibition stood at 7.31%.

In the case of `Cc1c(C(=O)N2CCCCCC2)nnn1-c1nonc1N`, the inhibition was active: 40.8%.

Turning to `Cc1ccccc1-n1c(=O)c2c3c(sc2n2cnnc12)CCCC3`, the inhibition came out at 7.53%.

For `COc1ccc(CNC(=O)C2CCN(c3nnc(-n4cccc4CNc4ccc(C)cc4)s3)CC2)c(OC)c1`, the inhibition amounted to 1.74%.

Turning to `O=S(=O)(Nc1cccc(-c2ccc(N3CCCC3)nn2)c1)c1ccc(F)cc1F`, the inhibition was -1.81%.

In the case of `O=S(=O)(c1ccc(F)cc1)N1CCC(n2c(C(F)(F)F)nc3cccnc32)CC1`, the inhibition was -3.71%.

For `Cc1ccc(S(=O)(=O)c2nc(-c3cccc(C)c3)oc2N2CCCCC2)cc1`, the inhibition stood at 9.52%.

Take `O=C(CCN1CCCCC1)Nc1cccc(Br)c1`: the inhibition is active: 54.8%.

Take `Cc1cccc(C)c1OCC1CNC(=O)O1` (stereo unspecified): the inhibition is active: 36.1%.

Consider `Cc1cc(-c2ccc(C)c(S(=O)(=O)N(C)c3ccc(C)c(C)c3)c2)on1`, for which the inhibition worked out at 5.02%.

With `COc1ccccc1NC(=O)Cn1c(=O)n(Cc2ccco2)c(=O)c2cccnc21`, the inhibition is -2.27%.

`CCOC(=O)c1c(Oc2ccc(OC)cc2)nnc(-c2ccccc2)c1-c1ccccc1`: the inhibition worked out at 19.9%.

As to `COc1ccc(N(Cc2cccs2)C(=O)Nc2ccccc2)cc1`, the inhibition came out at 5.21%.

Take `COc1ccc(OC)c(NC(=O)CN2C(=O)c3ccccc3Sc3ccc(C(=O)N4CCCC4)cc32)c1`: the inhibition worked out at 6.1%.

For `Cc1cc(C)c2c(=O)cc(CSc3nnc(COc4ccccc4C)n3C)[nH]c2c1`, the inhibition is -6.02%.

Consider `COc1ccccc1-c1cc(C(F)(F)F)nc(S(=O)(=O)CCCC(=O)Nc2cc(OC)c(OC)c(OC)c2)n1`, for which the inhibition was 10.3%.

In the case of `COc1ccc(CC(=O)NCc2ccc3c(c2)CCN3C(=O)c2ccc(Cl)cc2)cc1OC`, the inhibition was 5.4%.

With `O=c1cc(-c2ccccc2)c2cc(Cl)c3c(c2o1)CN(Cc1ccccc1)CO3`, the inhibition was 19.3%.

Consider `CCOC(=O)c1ccc(N2C(=O)c3n[nH]c(-c4cccs4)c3C2c2ccc(C(C)C)cc2)cc1` (stereo unspecified), for which the inhibition was -0.323%.

As for `Cc1ccc2c(c1)c1c(c(=O)n(-c3ccccc3C)c(=O)n1CC(=O)NCc1ccccc1)n2C`, the inhibition was found to be 7.63%.

As for `COc1ccc(Cn2c(-c3ccc(C)cc3)nc3c(c(=O)c4ccccc4n3C)c2=O)cc1`, the inhibition was active: 37.5%.

`O=C(NNC(=O)c1sccc1-n1cccc1)c1ccc(Cl)cc1`: the inhibition was active: 36.4%.

As for `Cc1ccc(CNS(=O)(=O)c2cc(C(=O)Nc3cccc(C(F)(F)F)c3)ccc2F)cc1`, the inhibition came to 5.66%.

Take `CCS(=O)(=O)c1ncc(Cl)c(C(=O)N2CCN(c3cccc(Cl)c3)CC2)n1`: the inhibition is -4.58%.

With `NC(=O)C1(N2CCCCC2)CCN(C(=O)Nc2ccc(C(F)(F)F)cc2)CC1`, the inhibition was -21.1%.

Take `CC1c2ccccc2SC(CCCN(C)C)c2ccccc21` (stereo unspecified): the inhibition is active: 50.5%.

Regarding `Cc1ccc(NCc2ccccc2-c2nnc(-c3ccccc3Cl)o2)c(C)c1`, the inhibition is -2.1%.

As for `COc1ccc(NC(=O)Nc2sc3nc4n(c(=O)c3c2C)CCC(C)CC4)cc1OC` (stereo unspecified), the inhibition amounted to 6.13%.

In the case of `CCc1cc2cc3c(cc2nc1SCC(=O)Nc1cc(C)on1)OCO3`, the inhibition is active: 31.9%.

As to `Cc1noc(/C=C/N(C)C)c1S(=O)(=O)N1CCCC(C(=O)Nc2ccc(F)cc2F)C1` (stereo unspecified), the inhibition is -19.9% and active: 54.1%.

In the case of `Cc1nc2c(C(=O)NCCc3ccccc3)cnn2c(C)c1Cc1c(F)cccc1Cl`, the inhibition was found to be 0.169%.

For the compound `Cc1c2cnn(CC(=O)NCc3ccc(F)cc3)c(=O)c2c(C)n1Cc1ccccc1F`, the inhibition came to 0.0946%.

As for `COc1ccc(Cl)cc1Nc1ncnc2c1c(-c1ccccc1)cn2-c1ccccc1`, the inhibition turned out to be 2.11%.

Consider `CC(C)(C)OC(=O)N1CCC(c2c(C(=O)NCc3cccs3)cnn2-c2ccc(F)cc2F)CC1`, for which the inhibition was 0.956%.

In the case of `CCOCCCNC(=O)c1cc2c(-c3ccc(OC)c(OC)c3)nn(C)c2s1`, the inhibition is -6.51%.

As to `COCCN1CCc2nc(SCC(=O)Nc3ccc(Br)cc3)[nH]c(=O)c2C1`, the inhibition came to 15.9%.

`CC(c1ccccc1)n1cc(C(=O)NCC2CCCO2)nn1` (stereo unspecified): the inhibition is active: 39.6%.

`COc1cccc2cc(C(=O)NCc3ccccn3)c(=O)oc12`: the inhibition was active: 43.7%.

Regarding `COc1cccc(/C=C/C(=O)Nc2ccc3c(c2)OCCO3)c1OC`, the inhibition was active: 69.1%.

As for `Cc1cccc(-c2c3c(=O)n(C)c(=O)n(C)c3cn2-c2cc(N)c(Cl)cc2Cl)c1`, the inhibition was -12%.

For `CN(C)c1oc(/C=C/c2ccc(F)cc2)nc1C#N`, the inhibition was -0.64%.

Take `CCN(c1ccccc1)c1nnc(NC(=O)Nc2cccc(Cl)c2C)s1`: the inhibition was determined as 2.93%.

For `CC(=O)c1ccc(NC(=O)Nc2nnc(N3CCCC(C)C3)s2)cc1` (stereo unspecified), the inhibition stood at 19.4%.

Take `CSc1ccc(-c2nc3ncccn3c2Nc2ccc(C)c(C)c2)cc1`: the inhibition was 0.335%.

`Nc1cc(=O)nc(SCC(=O)Nc2cccc(Cl)c2)n1CCc1ccccc1`: the inhibition turned out to be 9.45%.

Consider `CCN(CC)C(=O)c1sc(NC(=O)C(C)Sc2nc(-c3ccccc3)cc(C(F)(F)F)n2)c(C(=O)OC)c1C` (stereo unspecified), for which the inhibition was -9.9%.

With `CCC(=O)Nc1ccc(S(=O)(=O)NCc2ccc3c(c2)CCN3C(=O)c2ccc(C)cc2)cc1`, the inhibition was 2.03%.
